# Reference: the supplement of paper PMC8728848
# This is one part of the list.
# B1: PX14379A-bvu-539-28-539 (Bacteroides vulgatus) (protein)
# chain: EPYSEIIEEDYVPTEADEIALLATTYSQLRFVMDWYGLFDLQEESGDVIVTPTRPNGWDDGGTYKQMHKHTWDNQQGQPQSIWDYCYKGIANANKILKRADEGFFTEESKPKVVAEVKGVRALWYSILCDTHGNIPIQTSFSEEVPVQSTRKQVFDFIINELKEVMPNLPTEVNKSTYGRLTQWGAKCLMARMYLNAGVYTGTPMWNECLEQCNDIINSGLFSLETNYTDIFKTENSGCVETIFAIPYDEVYNEGDNNGPVFGAHMKFLSSNSRKVFNMQTTPWGGSAANPQFINSYDPDDMRLKYTWLQGDQYSPDGVLITTFPNKLPSIYKTDTDDGYRVGKYEIKVGAKSLLSNDFPYFRYTEVLLMKAECLLRLGQNETEAAHIVSQIRERAFRESAHPEKATVDAAWLKGDTHINYGTLDEKGQIDDAGNTEVVELGGLYDEWGWEFAAEARRRTDMIRFGTYQKKSWFNHTPTANDLNGNSILFPIHLDHLNTNPNLQQNPGYAGK
# Tests used:
# Test in all cases: glycan array binding signal (z-score within array); higher = stronger binding
# Details in all cases: glycan notation: IUPAC condensed, linker removed
# [1] = target: Fuc(a1-2)[Gal(a1-4)]Gal(b1-4)GlcNAc
# Method in brief: (§1)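 From the Consortium for Functional Glycomics database, 3228 arrays were curated, keeping only those whose protein sequence was available. Binding is given as a within-array Z-score averaged across arrays sharing a protein sequence and across linkers. Negative Z-scores can be read as non-binding.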
# [2] = target: Fuc(a1-2)[GalNAc(a1-3)]Gal
# Method in brief: as §1
# [3] = target: Fuc(a1-2)[GalNAc(a1-3)]Gal(b1-3)GalNAc(a1-3)[Fuc(a1-2)]Gal(b1-4)GlcNAc
# Method in brief: as §1
# [4] = target: Fuc(a1-2)[GalNAc(a1-3)]Gal(b1-3)GalNAc(b1-3)Gal(a1-4)Gal(b1-4)Glc
# Method in brief: as §1
# [5] = target: Fuc(a1-2)[GalNAc(a1-3)]Gal(b1-3)GlcNAc
# Method in brief: as §1
# [6] = target: Fuc(a1-2)[GalNAc(a1-3)]Gal(b1-3)GlcNAc(b1-2)Man(a1-3)[Fuc(a1-2)[GalNAc(a1-3)]Gal(b1-3)GlcNAc(b1-2)Man(a1-6)]Man(b1-4)GlcNAc(b1-4)GlcNAc
# Method in brief: as §1
# [7] = target: Fuc(a1-2)[GalNAc(a1-3)]Gal(b1-3)GlcNAc(b1-2)Man(a1-3)[Fuc(a1-2)[GalNAc(a1-3)]Gal(b1-3)GlcNAc(b1-2)Man(a1-6)]Man(b1-4)GlcNAc(b1-4)[Fuc(a1-6)]GlcNAc
# Method in brief: as §1
# [8] = target: Fuc(a1-2)[GalNAc(a1-3)]Gal(b1-3)GlcNAc(b1-3)GalNAc
# Method in brief: as §1
# [9] = target: Fuc(a1-2)[GalNAc(a1-3)]Gal(b1-3)GlcNAc(b1-6)GalNAc
# Method in brief: as §1
# [10] = target: Fuc(a1-2)[GalNAc(a1-3)]Gal(b1-4)Glc
# Method in brief: as §1
# [11] = target: Fuc(a1-2)[GalNAc(a1-3)]Gal(b1-4)GlcNAc
# Method in brief: as §1
# [12] = target: Fuc(a1-2)[GalNAc(a1-3)]Gal(b1-4)GlcNAc(b1-2)Man
# Method in brief: as §1
# [13] = target: Fuc(a1-2)[GalNAc(a1-3)]Gal(b1-4)GlcNAc(b1-2)Man(a1-3)[Fuc(a1-2)[GalNAc(a1-3)]Gal(b1-4)GlcNAc(b1-2)Man(a1-6)]Man(b1-4)GlcNAc(b1-4)GlcNAc
# Method in brief: as §1
# [14] = target: Fuc(a1-2)[GalNAc(a1-3)]Gal(b1-4)GlcNAc(b1-2)Man(a1-3)[Fuc(a1-2)[GalNAc(a1-3)]Gal(b1-4)GlcNAc(b1-2)Man(a1-6)]Man(b1-4)GlcNAc(b1-4)[Fuc(a1-6)]GlcNAc
# Method in brief: as §1
# [15] = target: Fuc(a1-2)[GalNAc(a1-3)]Gal(b1-4)GlcNAc(b1-3)Gal(b1-4)GlcNAc
# Method in brief: as §1
# [16] = target: Fuc(a1-2)[GalNAc(a1-3)]Gal(b1-4)GlcNAc(b1-3)Gal(b1-4)GlcNAc(b1-3)Gal(b1-4)GlcNAc
# Method in brief: as §1
# [17] = target: Fuc(a1-2)[GalNAc(a1-3)]Gal(b1-4)GlcNAc(b1-3)GalNAc
# Method in brief: as §1
# [18] = target: Fuc(a1-2)[GalNAc(a1-3)]Gal(b1-4)GlcNAc(b1-3)[Fuc(a1-2)[GalNAc(a1-3)]Gal(b1-4)GlcNAc(b1-6)]GalNAc
# Method in brief: as §1
# [19] = target: Fuc(a1-2)[GalNAc(a1-3)]Gal(b1-4)GlcNAc(b1-6)GalNAc
# Method in brief: as §1
# [20] = target: Fuc(a1-2)[GalNAc(a1-3)]Gal(b1-4)[Fuc(a1-3)]GlcNAc
# Method in brief: as §1
# [21] = target: Fuc(a1-2)[GalNAc(a1-3)]Gal(b1-4)[Fuc(a1-3)]GlcNAc(b1-3)GalNAc
# Method in brief: as §1
# [22] = target: Fuc(a1-2)[GalNAc(a1-4)]Gal(b1-4)GlcNAc
# Method in brief: as §1
# [23] = target: Fuc(a1-2)[GalNAc(b1-3)]Gal
# Method in brief: as §1
# Fuc(a1-3)GlcNAc = target: Fuc(a1-3)GlcNAc
# Method in brief: as §1
# [24] = target: Fuc(a1-3)[Gal(b1-4)]Glc6S
# Method in brief: as §1
# [25] = target: Fuc(a1-3)[Gal(b1-4)]GlcNAc
# Method in brief: as §1
# [26] = target: Fuc(a1-3)[Gal(b1-4)]GlcNAc(b1-2)Man
# Method in brief: as §1
# [27] = target: Fuc(a1-3)[Gal(b1-4)]GlcNAc(b1-2)Man(a1-3)[Fuc(a1-3)[Gal(b1-4)]GlcNAc(b1-2)Man(a1-6)]Man(b1-4)GlcNAc(b1-4)GlcNAc
# Method in brief: as §1
# [28] = target: Fuc(a1-3)[Gal(b1-4)]GlcNAc(b1-2)Man(a1-3)[Fuc(a1-3)[Gal(b1-4)]GlcNAc(b1-2)Man(a1-6)]Man(b1-4)GlcNAc(b1-4)[Fuc(a1-6)]GlcNAc
# Method in brief: as §1
# [29] = target: Fuc(a1-3)[Gal(b1-4)]GlcNAc(b1-3)Gal(b1-3)[Fuc(a1-4)]GlcNAc
# Method in brief: as §1
# [30] = target: Fuc(a1-3)[Gal(b1-4)]GlcNAc(b1-3)Gal(b1-4)[Fuc(a1-3)]GlcNAc
# Method in brief: as §1
# [31] = target: Fuc(a1-3)[Gal(b1-4)]GlcNAc(b1-3)Gal(b1-4)[Fuc(a1-3)]GlcNAc(b1-3)Gal(b1-4)[Fuc(a1-3)]GlcNAc
# Method in brief: as §1
# [32] = target: Fuc(a1-3)[Gal(b1-4)]GlcNAc(b1-3)GalNAc
# Method in brief: as §1
# [33] = target: Fuc(a1-3)[Gal(b1-4)]GlcNAc(b1-6)GalNAc
# Method in brief: as §1
# [34] = target: Fuc(a1-3)[Gal(b1-4)]GlcNAc(b1-6)[Gal(b1-3)GlcNAc(b1-3)]Gal(b1-4)Glc
# Method in brief: as §1
# [35] = target: Fuc(a1-3)[Gal(b1-4)]GlcNAc6S
# Method in brief: as §1
# [36] = target: Fuc(a1-3)[Gal3S(b1-4)]Glc
# Method in brief: as §1
# [37] = target: Fuc(a1-3)[Gal3S(b1-4)]GlcNAc
# Method in brief: as §1
binder,measurement,setting,value
B1,glycan array binding signal (z-score),[1],-0.199
same,glycan array binding signal (z-score),[2],-0.215
same,glycan array binding signal (z-score),[3],-0.41
same,glycan array binding signal (z-score),[4],-0.369
same,glycan array binding signal (z-score),[5],0.086
same,glycan array binding signal (z-score),[6],1.23
same,glycan array binding signal (z-score),[7],-0.277
same,glycan array binding signal (z-score),[8],-0.225
same,glycan array binding signal (z-score),[9],-0.335
same,glycan array binding signal (z-score),[10],-0.321
same,glycan array binding signal (z-score),[11],-0.252
same,glycan array binding signal (z-score),[12],-0.314
same,glycan array binding signal (z-score),[13],-0.188
same,glycan array binding signal (z-score),[14],-0.596
same,glycan array binding signal (z-score),[15],-0.032
same,glycan array binding signal (z-score),[16],1.3
same,glycan array binding signal (z-score),[17],-0.292
same,glycan array binding signal (z-score),[18],-0.072
same,glycan array binding signal (z-score),[19],0.122
same,glycan array binding signal (z-score),[20],-0.02
same,glycan array binding signal (z-score),[21],-0.157
same,glycan array binding signal (z-score),[22],0
same,glycan array binding signal (z-score),[23],0.188
same,glycan array binding signal (z-score),Fuc(a1-3)GlcNAc,-0.265
same,glycan array binding signal (z-score),[24],-0.372
same,glycan array binding signal (z-score),[25],-0.403
same,glycan array binding signal (z-score),[26],-0.393
same,glycan array binding signal (z-score),[27],-0.05
same,glycan array binding signal (z-score),[28],0.815
same,glycan array binding signal (z-score),[29],-0.234
same,glycan array binding signal (z-score),[30],-0.251
same,glycan array binding signal (z-score),[31],-0.164
same,glycan array binding signal (z-score),[32],-0.075
same,glycan array binding signal (z-score),[33],0.56
same,glycan array binding signal (z-score),[34],-0.44
same,glycan array binding signal (z-score),[35],0.955
same,glycan array binding signal (z-score),[36],-0.278
same,glycan array binding signal (z-score),[37],-0.117
